The text below walks through data of PMC8555761.

The chains behind the UniProt entries cited, without tags or fusion partners. Where a name states a change or a piece, a line headed by the entry shows the natural chain unless it says otherwise. A line that says so, or that is headed by a name, gives the form on record, which may keep a tag or linker. Residues count along the entry.
UniProt O00429: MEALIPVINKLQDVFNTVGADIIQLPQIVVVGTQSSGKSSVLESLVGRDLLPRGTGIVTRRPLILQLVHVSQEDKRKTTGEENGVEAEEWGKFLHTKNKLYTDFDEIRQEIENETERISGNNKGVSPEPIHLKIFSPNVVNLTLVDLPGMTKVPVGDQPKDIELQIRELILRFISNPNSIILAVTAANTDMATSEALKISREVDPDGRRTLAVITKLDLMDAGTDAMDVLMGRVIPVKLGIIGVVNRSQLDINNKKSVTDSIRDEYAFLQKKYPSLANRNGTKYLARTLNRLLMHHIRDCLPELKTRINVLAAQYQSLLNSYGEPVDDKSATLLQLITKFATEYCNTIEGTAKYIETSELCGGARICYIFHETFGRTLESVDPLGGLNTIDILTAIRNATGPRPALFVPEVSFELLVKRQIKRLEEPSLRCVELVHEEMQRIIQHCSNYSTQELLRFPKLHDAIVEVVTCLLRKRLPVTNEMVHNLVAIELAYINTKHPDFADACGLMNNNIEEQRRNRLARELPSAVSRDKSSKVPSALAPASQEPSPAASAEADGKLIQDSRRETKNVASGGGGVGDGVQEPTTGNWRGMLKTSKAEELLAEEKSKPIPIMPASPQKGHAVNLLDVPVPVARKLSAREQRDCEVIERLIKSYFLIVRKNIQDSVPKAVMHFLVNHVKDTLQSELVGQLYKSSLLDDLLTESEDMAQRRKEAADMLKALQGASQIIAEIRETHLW
UniProt Q07817: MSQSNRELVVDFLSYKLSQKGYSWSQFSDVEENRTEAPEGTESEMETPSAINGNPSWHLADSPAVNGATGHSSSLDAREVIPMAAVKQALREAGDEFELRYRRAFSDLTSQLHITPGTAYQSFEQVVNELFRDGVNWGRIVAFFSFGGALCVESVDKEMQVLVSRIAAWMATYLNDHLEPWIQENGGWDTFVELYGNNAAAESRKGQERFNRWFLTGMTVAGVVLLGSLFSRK
Bcl-xL ΔC7 deletion mutant-YFP: residues 1-226 of Q07817
Bcl-xL ΔC deletion mutant-YFP: residues 1-211 of Q07817
Bcl-xL M2 (mutant)-YFP (Q07817-1, form named): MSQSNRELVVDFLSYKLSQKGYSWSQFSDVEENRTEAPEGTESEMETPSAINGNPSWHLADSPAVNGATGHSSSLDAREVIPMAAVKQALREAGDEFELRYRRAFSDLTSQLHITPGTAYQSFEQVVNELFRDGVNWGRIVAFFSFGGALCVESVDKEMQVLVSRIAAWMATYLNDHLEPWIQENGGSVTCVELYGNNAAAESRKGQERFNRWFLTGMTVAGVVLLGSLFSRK

The target in experiment [1] is T1, RFP-Mff TM (UniProt Q9GZY8).
T1 sequence: VMYSITVAFWLLNSWLWF
Description: co-IP; RFP-Trap Agarose beads on whole cell lysates of transfected HEK293 cells, immunoblot.

Experiment [2] concerns the target YFP-Drp1 WT (UniProt O00429). Description: co-IP; YFP-Trap (GFP-Trap-A beads) on whole cell lysates of transfected HEK293 cells, bound proteins immunoblotted; also with SENP3 overexpression or SENP3 siRNA, Mff siRNA or Flag-Mff overexpression.
Experiment [3] has as its target endogenous Drp1 (human (endogenous in HEK293)) (UniProt O00429). The experiment is described as follows: co-IP; endogenous proteins: whole cell lysates of HEK293 cells incubated overnight with an Mff, Bcl-xL or Drp1 antibody pre-conjugated to protein-A beads; cells untreated, after OGD 2 h, after OGD plus 24 h reoxygenation, with SENP3 siRNA.
In experiment [4] the target is T2, endogenous Mff (human (endogenous in HEK293)) (UniProt Q9GZY8).
T2 sequence: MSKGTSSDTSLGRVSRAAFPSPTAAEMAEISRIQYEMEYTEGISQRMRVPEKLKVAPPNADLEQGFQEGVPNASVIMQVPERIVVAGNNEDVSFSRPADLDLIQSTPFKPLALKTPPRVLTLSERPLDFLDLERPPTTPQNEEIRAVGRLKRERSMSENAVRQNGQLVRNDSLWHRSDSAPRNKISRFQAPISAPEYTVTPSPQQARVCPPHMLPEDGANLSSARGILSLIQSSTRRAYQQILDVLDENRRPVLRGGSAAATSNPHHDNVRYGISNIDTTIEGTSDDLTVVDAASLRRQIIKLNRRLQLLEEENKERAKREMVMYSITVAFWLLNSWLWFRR
The experiment is described as above.

The target in experiment [5] is T3, GST-Mff ΔRR (UniProt Q9GZY8).
T3 sequence: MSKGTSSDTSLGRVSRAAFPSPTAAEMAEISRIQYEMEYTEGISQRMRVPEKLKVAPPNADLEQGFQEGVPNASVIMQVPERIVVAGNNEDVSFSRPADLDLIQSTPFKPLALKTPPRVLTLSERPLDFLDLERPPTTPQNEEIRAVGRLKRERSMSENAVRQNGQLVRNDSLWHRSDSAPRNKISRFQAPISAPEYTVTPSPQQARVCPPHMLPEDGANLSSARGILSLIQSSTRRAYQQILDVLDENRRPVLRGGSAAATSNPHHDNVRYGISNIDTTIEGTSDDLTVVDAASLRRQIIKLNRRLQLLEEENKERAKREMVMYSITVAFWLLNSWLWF
Description: pull-down; GST-pulldown (glutathione-sepharose 4B beads) on whole cell lysates of HEK293 cells expressing GST-tagged Mff, endogenous partner immunoblotted; also with Bcl-xL siRNA or Drp1 siRNA.

In experiment [6] the target is T4, GST-Mff ΔC deletion mutant (UniProt Q9GZY8).
T4 sequence: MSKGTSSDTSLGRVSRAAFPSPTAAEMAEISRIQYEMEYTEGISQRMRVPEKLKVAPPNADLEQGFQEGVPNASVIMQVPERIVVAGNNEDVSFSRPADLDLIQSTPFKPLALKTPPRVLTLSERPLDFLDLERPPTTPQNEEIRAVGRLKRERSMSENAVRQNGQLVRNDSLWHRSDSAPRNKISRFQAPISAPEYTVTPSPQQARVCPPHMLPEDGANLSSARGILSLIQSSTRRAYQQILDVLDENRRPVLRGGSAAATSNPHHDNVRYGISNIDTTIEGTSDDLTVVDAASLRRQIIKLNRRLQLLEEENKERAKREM
Described as above.

The target of experiment [7] is T5, GST-Mff ΔN50 (UniProt Q9GZY8).
T5 sequence: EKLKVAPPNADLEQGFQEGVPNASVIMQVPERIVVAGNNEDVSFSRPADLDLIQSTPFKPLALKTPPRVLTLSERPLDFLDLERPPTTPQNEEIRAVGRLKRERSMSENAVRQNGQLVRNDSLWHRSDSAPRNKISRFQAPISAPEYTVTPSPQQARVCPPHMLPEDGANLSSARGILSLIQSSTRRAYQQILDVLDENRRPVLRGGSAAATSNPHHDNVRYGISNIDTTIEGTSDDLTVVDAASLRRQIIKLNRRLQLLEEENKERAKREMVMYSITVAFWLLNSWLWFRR
Described as above.

Experiment [8] has as its target T6, GST-Mff (UniProt Q9GZY8).
T6 sequence: T2 sequence
Described as above.

Experiment [9] has as its target Bcl-xL M2 (mutant)-YFP (UniProt Q07817). The experiment is described as follows: co-IP; YFP-Trap (GFP-Trap-A beads) on whole cell lysates of transfected HEK293 cells, bound proteins immunoblotted; also with SENP3 overexpression or SENP3 siRNA, Mff siRNA or Flag-Mff overexpression. (Immunoblotting shows a protein as a band on a membrane.)
Experiment [10] concerns the target endogenous Bcl-xL (human (endogenous in HEK293)) (UniProt Q07817). Description: co-IP; endogenous proteins: whole cell lysates of HEK293 cells incubated overnight with an Mff, Bcl-xL or Drp1 antibody pre-conjugated to protein-A beads; cells untreated, after OGD 2 h, after OGD plus 24 h reoxygenation, with SENP3 siRNA.
Experiment [11] concerns the target YFP-Bcl-xL TM (UniProt Q07817). The experiment is described as follows: co-IP; YFP-Trap (GFP-Trap-A beads) on whole cell lysates of transfected HEK293 cells, bound proteins immunoblotted; also with SENP3 overexpression or SENP3 siRNA, Mff siRNA or Flag-Mff overexpression.
The target in experiment [12] is Bcl-xL-YFP (UniProt Q07817). The experiment is described as above.
Experiment [13] has as its target Bcl-xL ΔC deletion mutant-YFP (UniProt Q07817). The experiment is described as above.
Experiment [14] has as its target Bcl-xL ΔC7 deletion mutant-YFP (UniProt Q07817). The experiment is described as above.

These are yes or no findings as the source states them, for the method shown. In cells and extracts the contact can be indirect. Some results given as binding are weak or reduced against the parent protein; the word gives no strength. For some of these results: Sequences can lack the tags named with a protein.

Take “endogenous Bcl-xL (from UniProt Q07817-1 1-233)”: the binding entry in [1] is “binds”; in experiment [2], “binds”; in [3], “binds”; in experiment [4] it was “binds”; in [5], “binds”; in experiment [6], “no binding”. The binding result in experiment [7] and in experiment [8] was “binds” in each case.

For “YFP-Bcl-xL TM (from UniProt Q07817-1 210-226) (domain or fragment)”, the binding entry in experiment [1] was “binds”.

As for “endogenous Drp1 (from UniProt O00429 1-736)”, the binding entry is on record as “no binding” in [9] and “binds” in experiment [10].

B1: endogenous Mff (protein, UniProt Q9GZY8 1-342)
chain: T2 sequence
On to B1, for which the binding entry in experiment [11] is “binds”; in [12], “binds”; in [13], “no binding”; in [14], “binds”.

VMYSITVAFWLLNSWLWF (domain or fragment, UniProt Q9GZY8 323-340) [RFP-Mff TM]: in experiment [11], the binding result is recorded as “binds”.
